Test results: patent US8263074B2, “Fibroblast growth factor receptor-1 inhibitors and methods of treatment thereof” (ImClone LLC, priority 2003, dated 2012)

Experiments:
FGFR-1c = target: T1, FGFR-1c (Homo sapiens, UniProt P11362); test: BiaCore binding kinetics; conditions: BiaCore analyses; read-out: KDa to FGFR-1(IIIc)
T1 construct: purchased R&D Systems

FGFR-1(IIIb) = target: T2, FGFR-1(IIIb) (Homo sapiens, UniProt P11362); test: ELISA blocking assay (receptor binding to immobilized FGF)
T2 construct: purchased R&D Systems
T2 sequence (P11362 22-822 isoform P11362-19 limits assumed): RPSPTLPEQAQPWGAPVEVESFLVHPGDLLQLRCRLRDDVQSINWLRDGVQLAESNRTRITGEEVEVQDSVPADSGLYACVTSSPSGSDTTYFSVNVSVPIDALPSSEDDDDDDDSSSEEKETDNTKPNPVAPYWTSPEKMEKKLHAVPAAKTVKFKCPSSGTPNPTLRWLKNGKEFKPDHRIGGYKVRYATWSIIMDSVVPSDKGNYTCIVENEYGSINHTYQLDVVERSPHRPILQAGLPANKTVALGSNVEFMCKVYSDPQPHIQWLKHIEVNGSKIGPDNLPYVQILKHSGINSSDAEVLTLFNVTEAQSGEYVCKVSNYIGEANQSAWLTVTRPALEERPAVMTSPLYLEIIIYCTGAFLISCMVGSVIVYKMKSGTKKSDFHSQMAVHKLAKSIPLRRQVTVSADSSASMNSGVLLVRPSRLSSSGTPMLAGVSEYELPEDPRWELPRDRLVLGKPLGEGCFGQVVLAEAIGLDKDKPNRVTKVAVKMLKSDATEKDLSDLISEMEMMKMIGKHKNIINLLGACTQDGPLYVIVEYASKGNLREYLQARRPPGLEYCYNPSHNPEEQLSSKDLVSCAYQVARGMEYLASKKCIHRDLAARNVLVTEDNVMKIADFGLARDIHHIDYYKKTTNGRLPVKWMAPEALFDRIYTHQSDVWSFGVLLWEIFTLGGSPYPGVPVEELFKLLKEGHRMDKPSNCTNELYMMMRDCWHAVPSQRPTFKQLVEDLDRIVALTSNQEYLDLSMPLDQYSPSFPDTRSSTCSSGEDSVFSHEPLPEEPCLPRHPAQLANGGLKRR
Protocol: Recombinant FGFs (R&D systems, Minneapolis, Minn.) were coated on Immulon® 2B microtiter plates (ThermoLab Systems, Franklin, Mass.) at concentrations of 0.5-2 μg/ml for 2 hrs. The plates were then washed with 0.2% Tween20/PBS, and blocked with 5% milk/PBS for 2 hrs before use. Phage or antibody was serially diluted with 5 μg/ml heparin (Sigma, St Louis, Mo.), 5% milk, PBS. Recombinant FGFR-1 (R&D Systems) was then added to a final concentration of 1 μg/ml. The mixture was incubated at room temperature for 1 hr before transfer to the FGF-2 coated plates, and incubated at room temperature for an additional 2 hrs. Plates were then washed 3 times with 0.2% Tween20/PBS. The bound receptors were detected using an anti-human Fc monoclonal antibody coupled with HRP (Pierce Biotechnology Inc., Rockford, Ill.) solution prepared according to supplier's instructions. Data were presented as % inhibition of ligand-receptor binding of the controls.
This experiment was thoroughly described in Examples 6 and 14, except that FGFR-1(IIIb) recombinant protein was used instead of FGFR-1(IIIc) in all occasions. FR1-4H inhibited the binding of FGFR-(IIIb) to FGF Ligand (FIG. 29). Percent binding was determined using the ELISA blocking assay described in Examples 6 and 14.

T1 sequence (P11362 22-822): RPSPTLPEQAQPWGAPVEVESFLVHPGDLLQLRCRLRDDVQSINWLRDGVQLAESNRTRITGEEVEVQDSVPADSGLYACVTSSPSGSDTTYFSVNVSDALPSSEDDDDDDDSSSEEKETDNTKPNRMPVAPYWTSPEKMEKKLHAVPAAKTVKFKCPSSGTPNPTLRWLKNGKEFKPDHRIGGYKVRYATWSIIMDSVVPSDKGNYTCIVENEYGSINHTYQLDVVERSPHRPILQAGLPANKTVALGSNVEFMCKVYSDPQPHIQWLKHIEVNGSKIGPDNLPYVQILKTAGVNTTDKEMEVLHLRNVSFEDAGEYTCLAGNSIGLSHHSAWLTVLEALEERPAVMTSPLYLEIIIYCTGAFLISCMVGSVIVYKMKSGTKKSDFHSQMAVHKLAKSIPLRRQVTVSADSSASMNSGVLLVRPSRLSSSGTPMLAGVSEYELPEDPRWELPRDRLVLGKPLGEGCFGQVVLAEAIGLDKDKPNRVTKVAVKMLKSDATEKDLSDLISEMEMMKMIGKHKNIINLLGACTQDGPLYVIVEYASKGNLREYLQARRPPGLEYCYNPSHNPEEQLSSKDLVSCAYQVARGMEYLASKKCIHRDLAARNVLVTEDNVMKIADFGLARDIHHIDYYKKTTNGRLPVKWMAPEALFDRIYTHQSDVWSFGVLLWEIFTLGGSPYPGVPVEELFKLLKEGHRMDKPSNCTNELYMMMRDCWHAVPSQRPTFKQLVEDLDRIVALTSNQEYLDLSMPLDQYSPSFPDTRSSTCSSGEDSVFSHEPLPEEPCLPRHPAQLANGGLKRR

- Kd (FGFR-1c): > 10 µM
- inhibition of binding of FGFR-(IIIb) to FGF ligand (FGFR-1(IIIb)): inhibited
- antibody concentration at which percent binding was statistically reduced over control (FGFR-1(IIIb); FGFR-1(IIIb)): above 1 nM
B1: FR1-4H: neutralizing antibody specific to only the b-splicing form of FGFR-1; VH/VL SEQ ID NOS:23, 24 (antibody, listed as Homo sapiens, V domains shown)
VH: QVQLVEFGPGLVKPSETLSLTCTVSGGSISSYYWSWIRQPPGKGLEWIGYIYYSGSTNYNPSLKSRVAISVDTSKNQFSLKLSSVTAADTAVYYCAREYYYDSSGYYFYAFDIWGQGTTVTVSS
VL: LPVLTQPPSASGTPGQRVSISCSGSSSNIGSNYVYWYQQLPGTAPKLLIFRNNQRPSGVPDRFSGSKSGTSASLAISGLRSEDEADYYCAAWDDSLSGWVFGGGTKLTVLG
